# Screen size: about 310,000 compounds; about 2,200 (0.71%) showed an effect of 50% or more. Effects have a minus sign here. The list shows a part of the results.
# Target: human ether-à-go-go-related gene (hERG) potassium channel (human, UniProt Q12809)
# Assay: primary screen, population patch clamp on CHO cells stably expressing hERG
# human ether-à-go-go-related gene (hERG) potassium channel, sequence (Q12809 whole entry, looked up): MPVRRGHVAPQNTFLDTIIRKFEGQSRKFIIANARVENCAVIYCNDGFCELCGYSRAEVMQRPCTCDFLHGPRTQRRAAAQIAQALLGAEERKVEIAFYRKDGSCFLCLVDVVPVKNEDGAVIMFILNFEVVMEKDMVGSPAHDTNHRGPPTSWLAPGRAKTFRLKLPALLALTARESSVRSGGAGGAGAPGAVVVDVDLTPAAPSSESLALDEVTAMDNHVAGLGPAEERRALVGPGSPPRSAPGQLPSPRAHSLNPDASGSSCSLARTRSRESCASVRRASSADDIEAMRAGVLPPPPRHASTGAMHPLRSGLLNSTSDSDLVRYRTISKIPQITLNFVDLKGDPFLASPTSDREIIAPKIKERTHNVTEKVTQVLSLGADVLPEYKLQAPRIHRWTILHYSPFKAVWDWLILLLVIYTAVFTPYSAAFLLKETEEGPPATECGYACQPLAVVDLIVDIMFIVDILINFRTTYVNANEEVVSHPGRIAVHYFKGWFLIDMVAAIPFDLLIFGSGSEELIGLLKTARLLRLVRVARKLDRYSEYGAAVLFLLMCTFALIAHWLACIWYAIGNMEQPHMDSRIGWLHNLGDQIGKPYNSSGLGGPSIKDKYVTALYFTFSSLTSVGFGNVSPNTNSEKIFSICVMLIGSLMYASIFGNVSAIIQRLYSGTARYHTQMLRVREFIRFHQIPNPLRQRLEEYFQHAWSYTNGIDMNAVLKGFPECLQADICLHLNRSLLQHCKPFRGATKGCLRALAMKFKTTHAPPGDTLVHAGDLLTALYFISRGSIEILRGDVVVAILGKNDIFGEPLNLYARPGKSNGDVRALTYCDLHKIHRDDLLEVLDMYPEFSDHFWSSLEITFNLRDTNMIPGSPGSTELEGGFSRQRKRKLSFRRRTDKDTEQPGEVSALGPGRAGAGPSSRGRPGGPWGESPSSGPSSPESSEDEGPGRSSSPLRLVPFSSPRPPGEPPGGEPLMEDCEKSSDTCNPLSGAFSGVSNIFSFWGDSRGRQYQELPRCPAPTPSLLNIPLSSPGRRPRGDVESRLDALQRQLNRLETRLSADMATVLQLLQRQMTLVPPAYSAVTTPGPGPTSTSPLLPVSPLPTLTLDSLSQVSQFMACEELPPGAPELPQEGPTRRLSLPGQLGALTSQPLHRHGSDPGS
row,Compound,"hERG current change (%, negative = inhibition) at 1uM [%]"
1,Cc1cc(C)nc(-n2nc(C)cc2NC(=O)CNC(C)c2ccccc2)n1 (stereo not drawn),-13.3
2,Cc1cc(NCCCN(C)C)n2c(nc3ccccc32)c1C#N,3.12
3,CCN1CCN(C(=O)c2ccc(CN(c3ccc(C)c(C)c3)S(C)(=O)=O)cc2)CC1,-2.14
4,CCOC(=O)C(C(C)=O)=C1SC2CS(=O)(=O)CC2S1 (stereo not drawn),-4.74
5,c1ccc(C(CN2CCOCC2)c2ccccc2)cc1,5.96
6,COc1ccccc1NC(=S)NCc1ccc(F)cc1,11.6
7,CSc1ncc(C(=O)O)n1-c1ccc(F)cc1,12
8,CCc1nc(SCc2ccccn2)c2c(=O)n(C)c(=O)n(C)c2n1,7.61
9,CCC(=O)Nc1ccc(NC(=O)c2cc3ccccc3o2)cc1,-5.21
10,CCCN1CC23C=CC(O2)C(C(=O)O)C3C1=O (stereo not drawn),12.4
11,CC(Oc1ccccc1)C(=O)N1CCC2(CC1)CC(=O)c1ccccc1O2 (stereo not drawn),-30.4
12,COC(=O)c1ccc(-n2c(C)cc(/C=N/n3cnnc3)c2C)cc1,5.88
13,Cc1ccc(SC(C)c2nc(-c3cccnc3)no2)cc1 (stereo not drawn),-3.31
14,CC(C)(C)NC(=O)/C(=C\c1ccccc1F)NC(=O)c1ccc([N+](=O)[O-])cc1,1.34
15,O=C(NCCN1CCOCC1)C1CCCN(S(=O)(=O)c2ccc(F)cc2)C1 (stereo not drawn),2.96
16,COc1ccc(OCc2cc(C(=O)N3CCN(C4CCCC4)CC3)no2)c(Cl)c1,4.81
17,CS(=O)(=O)c1cnc(-c2ccccc2)nc1Sc1ccc(F)cc1,-0.0273
18,Cc1ccc(N=C2NC(=O)CS2)c(C)c1,6.77
19,CC(C)CNC(=O)COC(=O)c1cncc(Br)c1,2.79
20,O=C(O)CCCn1cc(NC(=O)c2cccc(F)c2)cn1,7.53
21,O=C(CCN1N=C(c2ccccc2)CCC1=O)NCCCN1CCOCC1,17.2
22,Cc1csc(NC(=O)C2CCN(S(=O)(=O)c3ccc4c(c3)oc(=O)n4C)CC2)n1,-27.5
23,COc1ccc(NC(=O)C2CCC(=O)N2S(=O)(=O)c2ccc(C)cc2)cc1Cl (stereo not drawn),16.4

row,Compound,"hERG current change (%, negative = inhibition) at 1uM [%]"
1,COc1ccccc1NC(=S)N(Cc1ccc(C)cc1)Cc1ccccn1,2.27
2,O=C(CNc1ccc(F)cc1Cl)Nc1cccc(S(=O)(=O)N2CCCCC2)c1,9.38
3,CCCCCCCN1N=C(C)C(C(=O)c2ccccc2)C1=O (stereo not drawn),0.523
4,O=C(NCCSc1ccc(Br)cc1)c1ccccc1,8.73
5,Cc1cc(C)nc(SCCc2ccncc2)n1.Cl,13.4
6,CCNC(=S)NNC(=O)c1csc2c1CCC(C)C2 (stereo not drawn),5.79
7,O=C(NCC1CCCO1)C1CCC(=O)N1Cc1ccc(F)cc1 (stereo not drawn),11.3
8,COc1cc2c(cc1OC)C(c1cccc([N+](=O)[O-])c1)N(C(=O)c1ccc(F)cc1)CC2 (stereo not drawn),9.92
9,COC(=O)Cc1ccc(NC(=O)c2cccs2)cc1,12.6
10,Cc1ccccc1OCC(=O)OCC(=O)Nc1cc(C(F)(F)F)ccc1N1CCOCC1,18.4
11,O=[N+]([O-])c1ccc(-c2csc(N/N=C/c3cccnc3)n2)cc1,23.3
12,COc1ccc(C2=NOC(C(=O)Nc3cc(C)nn3-c3ccccc3)C2)cc1OC (stereo not drawn),-2.85
13,COc1ccccc1-c1coc2c(CN3CCCC(C)C3)c(O)ccc2c1=O (stereo not drawn),8
14,CC1(C)OC(C(N)=O)C(C(N)=O)O1 (stereo not drawn),-7.88
15,CCN(CC)S(=O)(=O)c1cccc(C(=O)Nc2cc(C)cc(C)c2)c1,17.1
16,COc1ccc(OCc2cc(=O)[nH]c3ccccc23)cc1,7.59
17,CC(C)(C)c1nnc(NC(=O)c2ccc(Cl)nc2)s1,-2.3
18,COc1ccc(O)c(CN2CCCC(C(=O)Nc3cccc(-n4cccn4)c3)C2)c1 (stereo not drawn),5.32
19,CC1CCCCN1S(=O)(=O)c1ccc2c(c1)CCN2C(=O)C1CCC1 (stereo not drawn),6.45
20,O=C1c2ccccc2C(=O)N1CCn1nc(Cl)nc1Cl,3.34
21,CC(C)CCCCCCNC(=S)Nc1ccc(S(=O)(=O)N2CCOCC2)cc1,12.8
22,O=C(CN1C(=O)c2ccccc2C1=O)Nc1nc(-c2cccc([N+](=O)[O-])c2)cs1,5.08
23,Nc1nnc(SCC(=O)Nc2ccc(Cl)c(C(=O)O)c2)s1,16.6

row,Compound,"hERG current change (%, negative = inhibition) at 1uM [%]"
1,Cc1ccccc1CSc1nnc(-c2ccccc2)c(=O)[nH]1,8.62
2,COc1ccc(-c2c(C(C)=O)c(C)nc3sc4c(=O)[nH]nnc4c23)cc1,9.43
3,Cc1cccc(-n2cc(C#N)c(=O)[nH]c2=O)n1,15.8
4,COC(=O)c1cn(C(=O)c2cc(OC)cc(OC)c2)c2ccccc12,12.7
5,COCCn1c(=O)[nH]c2cc(C(=O)NCC3CCCO3)ccc2c1=O (stereo not drawn),2.65
6,O=c1c2c3c(sc2nc(NCCOCCO)n1Cc1ccco1)CCCCC3,2.13
7,Cc1ccc(NC(=O)C(C)N=C2NS(=O)(=O)c3ccccc32)cc1F (stereo not drawn),12.1
8,O=C(Nc1ccccc1)Nc1cccn(Cc2c(F)cccc2Cl)c1=O,15.7
9,Cc1nc(NC(=O)CSc2ccc(-c3nc4ccccc4[nH]3)cn2)sc1C,0.253
10,NC(=O)c1ccc(NC(=O)COC(=O)CCC(=O)c2ccc(Cl)cc2)cc1,10.4
11,COc1ccc2c(CC(=O)N(C)CC3COc4ccccc4O3)coc2c1 (stereo not drawn),18.4
12,C=CCSc1nc(=O)n2cccc(C)c2n1,-14.7
13,O=C(OCC(=O)N1CCN(C(=O)c2ccco2)CC1)c1ccccc1O,4.06
14,NC(=O)CN(c1ccc(Oc2ccccc2)cc1)S(=O)(=O)c1ccccc1,8.67
15,Cc1ccc(NC(=O)CN(C)C(=O)CN2C(=O)NC(C)(c3ccccc3)C2=O)cc1 (stereo not drawn),4.41
16,COC(=O)[C@@H]1[C@H]2C[C@H]3c4[nH]c5ccccc5c4CCN3C[C@@H]2CC[C@@H]1O.Cl,4.59
17,CCOC(=O)c1ccc(NC(=S)NC(=O)C2CCCC2)cc1,8.99
18,CCN(CC)S(=O)(=O)c1ccc2c(c1)N(CC(=O)NCCc1ccc(S(N)(=O)=O)cc1)C(=O)CO2,-2.95
19,CCOc1ccc2[nH]c3c(=O)n(CCc4ccc(OC)cc4)cnc3c2c1,1.85
20,CCN(CC)c1ccc(NC(=O)c2ccc3c(c2)OCO3)c(C)c1,15.9
21,CCC(=O)Nc1ccc(NC(=S)Nc2ccccc2)cc1,7.18
22,COc1cc([N+](=O)[O-])ccc1NC(=O)Nc1nc2c(s1)CCCC2,11.2
23,O=C(NCc1ccco1)c1cc(-c2cccs2)on1,-1.08

row,Compound,"hERG current change (%, negative = inhibition) at 1uM [%]"
1,CCCN(CCC)S(=O)(=O)c1ccc(C(=O)NNc2nc(-c3ccccc3)c3cc(Br)ccc3n2)cc1,-0.278
2,Cc1cc(C)nc(SCC(=O)NCC2COc3ccccc3O2)n1 (stereo not drawn),7.28
3,CCOC(=O)c1ccc(CNC(=O)CSc2nc(NC(=O)c3ccccc3)c3c(C)c(C)oc3n2)cc1,3.94
4,O=C(Nc1ccc(Cl)cc1)Nc1cccc(C(=O)O)c1,7.61
5,Cc1onc(-c2ccccc2)c1C(=O)NCc1ccccn1,9.42
6,O=C(Nc1ccc2c(c1)OCCO2)c1ccc(Cl)cc1Cl,10.9
7,CCCc1nnc(NC(=O)c2cccc(OC)c2)s1,-16.3
8,CCN(CC)C(=O)CN(c1ccc(F)c(Cl)c1)S(C)(=O)=O,8.09
9,CCC(Sc1ncnc2c1c(-c1ccccc1)cn2-c1ccc(OC)cc1)C(=O)OC (stereo not drawn),6.88
10,C/C=C\C(=O)Nc1cccc(C2=NOC3(C2)C[C@@H](C(N)=O)N(C(=O)c2ccc(OC)cc2)C3)c1 (stereo partly drawn),0.602
11,N/C(=N\O)c1ccc(Oc2ccccc2Cl)c([N+](=O)[O-])c1,4.65
12,COc1ccccc1NC(=O)Nc1ccnn1Cc1cccs1,4.91
13,COC(=O)c1cc(S(=O)(=O)NCCN2CCN(c3ccccc3F)CC2)c[nH]1,19.6
14,COc1nn(CC(=O)N2N=C(C(F)F)CC2(O)C(F)F)cc1[N+](=O)[O-] (stereo not drawn),-13.7
15,O=c1c(Cl)c(O)c2cccc3c4ccccc4n1c23,12.4
16,COc1cc(OC)cc(C(=O)Nc2ccc([N+](=O)[O-])cn2)c1,3.11
17,CCCCC(CC)C(=O)Nc1ccc(C)c(O)c1 (stereo not drawn),27.5
18,Cc1ccn2c(NCc3ccc4c(c3)OCO4)c(-c3ccc(O)cc3)nc2c1,4.84
19,O=C(CCn1c(=S)oc2ccccc21)Nc1ccccc1F,-5.62
20,O=c1c2ccccc2nc(-c2ccco2)n1CCCn1ccnc1,-29.7
21,NC(=O)CCn1ccc2ccccc21,10.4

# Source: publication PMC4336329 (PLoS ONE, 2015)
